In PubChem BioAssay AID1240 (Sanford-Burnham Center for Chemical Genomics, 2008) one finds displacement data, which are given here for 69 compounds.

Out of some 50,000 compounds screened, about 800 (1.6%) showed an effect of 50% or more. The list shows a part of the results.

In this assay the target is Bcl-2-like protein 10 (Homo sapiens) (UniProt Q9HD36). As to the kind of experiment: Phenotype converters, Bcl-B/TR3 peptide binding displacement, primary biochemical FP (AID 1240).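 Further: 0% = Bcl-B with tracer peptide and DMSO and 100% = tracer peptide lacking Bcl-B.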 The following applies: GST-Bcl-B / FITC-TR3 peptide fluorescence polarization; stronger effect = higher value; compound at 3.75 mg/L.
Sequence of UniProt Q9HD36 (Q9HD36 whole entry, looked up): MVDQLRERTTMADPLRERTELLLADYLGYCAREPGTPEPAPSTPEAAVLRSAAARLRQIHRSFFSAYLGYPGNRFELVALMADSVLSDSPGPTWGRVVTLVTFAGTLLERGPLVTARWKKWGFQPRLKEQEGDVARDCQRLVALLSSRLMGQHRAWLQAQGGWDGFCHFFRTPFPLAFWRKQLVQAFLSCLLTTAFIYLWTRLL
Turning to `COc1ccc(CC(=O)N2N=C(C)CC2(O)c2cccnc2)cc1OC` (centres undefined), the displacement was -28.2%. Take `COc1cccc(/C=C2/C(=O)ON=C2c2ccccc2)c1OC`: the displacement turned out to be 16.3%. Regarding `O=C(O)c1nc2n(n1)C(C(F)(F)F)CC(c1cccs1)N2` (centres undefined), the displacement is 3.3%.

For the compound `O=S(=O)(c1ccc(NC(=S)Nc2ccc(F)cc2)cc1)N1CCc2ccccc21`, the displacement is -4.8%. The same measure for `CCOC(=O)c1c(N)sc(C)c1-c1ccc(CC(C)C)cc1`: -2.7%. The same measure for `OC(CNCC1CCCO1)Cn1c2ccc(Br)cc2c2cc(Br)ccc21` (centres undefined): 5.4%; for `COc1cc(C=C2C(=O)NC(=O)NC2=O)cc(I)c1OCc1ccc(Cl)cc1`: 11.6%. Consider `CC(Sc1n[nH]c(=O)[nH]c1=O)C(=O)OCc1ccccc1` (centres undefined), for which the displacement was -4.2%. The same measure for `COc1ccc(-n2c(=O)c3c4c(sc3n3c(SCC(N)=O)nnc23)CCCC4)cc1`: 0.7%; for `CCOc1ccccc1OCCN(CC)CC`: -3.2%; for `CC1=CC(=O)C=C/C1=N\OS(=O)(=O)c1ccccc1`: 25.4%. Take `COc1ccc(C(=O)/C=C/c2ccc(/C=C/C(=O)c3ccc(OC)cc3)cc2)cc1`: the displacement worked out at 19.1%.

On to `COc1ccc(OC(C)C(=O)Nc2ccc(C)c(Cl)c2)cc1` (centres undefined), for which the displacement was determined as 10.5%. Next, `CC(=O)Oc1ccccc1N1C(=O)c2ccc(-c3nc4ccccc4c(=O)o3)cc2C1=O`: 13.1%. The same measure for `CCOc1cccc2sc(NC(=O)c3ccc(Br)cc3)nc12`: 9%; for `Cc1c(NC(=O)C(C)C)cccc1-c1nc2ncccc2o1`: 1.5%; for `C(=Nc1ccc(-c2nnc(-c3ccccc3)o2)cc1)c1c2ccccc2cc2ccccc12`: 19.3%. Next, `CCCCC(=O)Nc1ccc(C(=O)OCCC)cc1`: -6%; `Cc1cc(C)nc(/N=C(/N)Nc2ccccc2O)n1`: 5.3%.

As for `O=C1NC(=S)N/C1=C\c1ccccc1F`, the displacement came to 6.8%. Next, `CC(C)(C)c1ccccc1OCC(=O)Nc1nccs1`: -9.6%.

Consider `COc1ccccc1C/C(N)=N/OC(=O)COc1ccc(C)cc1Br`, for which the displacement was -7.8%.

With `Cc1cc(Nc2ccccc2)nn1C(=O)c1ccc(Cl)cc1`, the displacement was -10.9%.

In the case of `COc1ccc(N2C(=O)CC(Sc3nccc(C)n3)C2=O)cc1` (centres undefined), the displacement came out at 11.9%. Next, `N#C/C(=C(/O)CCCN1C(=O)c2ccccc2C1=O)c1nc2ccccc2[nH]1`: -6.8%; `O=C1C(N2CCOCC2)=C/C(=N\S(=O)(=O)c2ccc(Cl)cc2)c2ccccc21`: 1.6%; `CCCCn1c(O)c(C2=c3ccccc3=NC2=O)sc1=S`: -5.3%.

Consider `COc1cc(NC(=O)c2ccc(C(C)(C)C)cc2)c(OC)cc1NC(C)=O`, for which the displacement turned out to be 2.4%. The same measure for `COc1ccc(C(=O)N2c3c(C)cccc3C(Nc3ccccc3C)CC2C)cc1` (centres undefined): -6%; for `Cc1ccc(N2C(=O)CSC2c2ccc(Cl)cc2)cc1` (centres undefined): -0.4%; for `CCOC(=O)c1c(NC(=O)c2nn3c(c2Cl)NC(c2cccs2)CC3C(F)(F)F)sc2c1CCC2` (centres undefined): 10.5%. The same measure for `Cc1sc(-c2c(C#N)c(N)nc3c2CCCCC3)cc1[N+](=O)[O-]`: -8.5%. Next, `Cc1ccc(OCC(=O)Nc2c(C)cc(Br)cc2C)cc1C`: 12.1%; `COc1ccc(O)c(C2NN=C(Cc3ccccc3)S2)c1` (centres undefined): -10.6%. For the compound `COc1cccc(C(=O)Nc2cc(-c3nc4cc(Cl)cc(Cl)c4o3)ccc2C)c1`, the displacement stood at 3.7%. `COc1cc(/C=C2/C(=O)NC(=S)N(c3ccccc3)C2=O)ccc1OCc1ccc([N+](=O)[O-])cc1`: the displacement was found to be 4%.

Consider `C=C(C)Cn1c(-c2cccc([N+](=O)[O-])c2)n[nH]c1=S`, for which the displacement was -7.3%. The same measure for `CC(=O)c1cccc(N2C(=O)c3ccc(C(=O)c4ccc5c(c4)C(=O)N(c4cccc(C(C)=O)c4)C5=O)cc3C2=O)c1`: 15%; for `OC(COCc1ccc2c(c1)OCO2)CN1CCC(Cc2ccccc2)CC1` (centres undefined): 0.1%. Consider `COc1cccc(NC(=O)C2COc3ccccc3O2)c1` (centres undefined), for which the displacement was -1.5%. For the compound `CCOC(=O)c1c(C)n(C)c2c(C)cc(O)c(OC(=O)CC)c12`, the displacement was -8.7%. Next, `CCCCOc1ccc(N2C(=O)c3ccc4c5c(ccc(c35)C2=O)CC4)cc1`: -5.1%; `Clc1ccc(-c2nc(N3CCOCC3)c3ccccc3n2)cc1`: -1%. Turning to `CC(=O)Nc1ccc(C(=O)N2CCN(c3cccc(Cl)c3)CC2)cc1`, the displacement was 9%. `O=C(COc1ccc(Br)cc1)Nc1ccc2c(c1)OCO2`: the displacement is -7.5%.

In the case of `CC(C)(C)c1ccc(Oc2c(C(F)(F)F)oc3cc(OCC(N)=O)ccc3c2=O)cc1`, the displacement was -3.9%. The same measure for `O=C(Nc1ccc(-c2nc3ccccc3o2)cc1)c1cccs1`: -10.9%. Next, `CC(=O)c1cc(C(=O)Nc2ccc3ccccc3c2)c(C)o1`: 11.9%. As to `CCc1ccccc1NC(=O)COc1ccc(Br)cc1`, the displacement was -6.8%. Next, `Cc1onc(-c2c(F)cccc2Cl)c1C(=O)NCc1ccc(Cl)cc1`: -6.9%; `C/C(=N\NC(=O)COc1ccccc1C)c1ccccc1`: 2.1%; `Cc1ccc(C(=O)N2CCN(c3ccc([N+](=O)[O-])cc3)CC2)o1`: 13.6%. The same measure for `COc1ccc(Cc2nc(-c3ccc(Cl)cc3)no2)cc1OC`: 1.1%; for `O=c1[nH]c(=O)n(-c2ccccc2F)c(O)c1C=Nc1ccc2c(c1)OCO2`: -1.3%; for `O=C(Nc1c(C(=O)Nc2cccc(Cl)c2)cnn1-c1ccccc1)c1ccccc1Cl`: 83%. Next, `CN1C(C)(C)CC(NC(=O)CCC(=O)NC2CC(C)(C)N(C)C(C)(C)C2)CC1(C)C`: 0.7%; `O=C(O)C1CCC(=O)N1C1c2ccccc2Oc2ccccc21` (centres undefined): -11.5%. Regarding `Cc1[nH]c2ccccc2c1/C=N/NC(=O)c1cccc(Br)c1`, the displacement is 17.2%. Next, `COc1ccc(C2Nc3ccccc3C(=O)N2Cc2ccco2)cc1COc1ccc([N+](=O)[O-])c(C)c1` (centres undefined): 3.3%; `O=S(=O)(c1ccc(Br)cc1Br)N1CCN(c2ccccc2)CC1`: 1.9%.

Turning to `COc1ccc(S(=O)(=O)Nc2c(C)cc(C)cc2C)cc1`, the displacement is 1.1%. Next, `C/C(=N\Nc1nc(-c2ccc(C)cc2)nc2ccccc12)c1ccc([N+](=O)[O-])cc1`: -1.5%; `COc1ccc(NC(=S)NCc2ccc(Cl)cc2)cc1`: 9%; `CCC(=O)Nc1ccc(NC(=O)Cc2ccccc2)cc1`: 8.1%.

Consider `CC1CCc2c(sc(NC(=O)c3cccc(F)c3)c2C#N)C1` (centres undefined), for which the displacement is -6.5%.

On to `N/C(=N\OC(=O)COc1ccc2ccccc2c1)c1ccc(Cl)cc1`, for which the displacement is 7%. Next, `O=C(/C=C/c1ccco1)Nc1ccc(NC(=O)c2ccco2)cc1`: 10.5%; `CC(C)(C)c1ccc(S(=O)(=O)N/N=C/c2ccc3c(c2)OCO3)cc1`: -7.4%; `c1ccc(CNn2c(CN3CCOCC3)nc3ccccc32)cc1`: -2.8%.
